# Assay results published in the supplement of paper PMC12889115.
# The list shows a part of the results. Cut-off read from the data, not from the text of the source: active = 25% or less and inactive = the rest. Single values are uncertain, as repeats are few or missing.
# System: Salmonella enterica serovar Typhimurium SL1344
# Experiment: intramacrophage bacterial GFP load (SAFIRE), percent of DMSO control (% of DMSO); higher = more intracellular bacteria (less inhibition)
# Conditions: 25 µM; system: infected RAW 264.7 macrophages
# Method: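 Secondary screen of the 553 primary hits at 25 µM. (i) S. Typhimurium SL1344 grown in Mueller-Hinton broth with 0.5 µg/mL polymyxin B, OD600 read after 18 h. (ii) SAFIRE assay: RAW 264.7 macrophages infected with S. Typhimurium sifB::gfp (MOI 30); compound added 2 h post-infection; cells fixed at 18 h; GFP-positive pixel fraction per macrophage imaged by confocal microscopy and expressed as % of DMSO control.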
# 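Note: compounds tested were the hits of an earlier 50 µM broth growth screen of a drug-like diversity library run with polymyxin B.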
row,Compound,intramacrophage bacterial GFP load
1,COCCCN1C(=O)CC(CC(=O)N2CCN(c3ccccc3C)CC2)(c2ccccc2OC)C1=O (stereo not drawn),inactive: 57
2,COc1cccc(CN2CCc3nnc(C(CC(C)C)NC(=O)c4cc(C)cc(C)c4)n3CC2)c1O (stereo not drawn),active: 22.4
3,CC(C)CC(=O)C1CCCN(c2nncc(-c3cccc(Cl)c3)n2)C1 (stereo not drawn),inactive: 152
